Test results: PubChem BioAssay AID1671194 (National Center for Advancing Translational Sciences (NCATS), 2021)
The campaign covered roughly 140,000 compounds. About 240 (0.17%) were called active. Inconclusive means that the source gave no clear call. Such entries were picked first, then a sample of the others. Calls follow the shape of the dose curve; as a rule, active = well fitted inhibition curve with a large enough effect; inconclusive = small, poorly fitted or top-dose-only effect; inactive = no such curve, though single readings can be large or run the other way. Potencies of inconclusive entries are doubtful fits and often do not repeat.

Experiment: Primary qHTS assay for inhibitors of alpha-synuclein gene (SNCA) expression; also: nearly all actives have a fitted effect of over 45% in size
Details: HEK-293 SNCA-luciferase knock-in, luminescence, 24 h; series mostly up to 57.2 µM
Potency is read from the fitted curve at half-maximal effect; tags tell the direction and shape of the fitted curve.

Row | Structure (SMILES) | Potency
1 | O=C(Cc1c[nH]c2ncc(-c3ccccc3)cc12)Nc1ccc(Cl)cc1 | inactive
2 | CCN1CCN(C(=O)CCC2CCN(S(=O)(=O)c3ccccc3)CC2)CC1 | inconclusive: 2.24 µM [inhibitor, full curve, poor fit]
3 | C=CCn1cc2c3c(cccc31)[C@H](CC(C)C)N[C@H](C(=O)NCCN(C)C)C2 | inactive
4 | COc1ccc(C(=O)N2CCN(C(=O)c3nnn4c3COC(c3ccc(Cl)cc3)C4)CC2)c(C)c1 (configuration not stated) | inconclusive: 31.6 µM [inhibitor, single point]
5 | Cc1cccc(-c2cccc(NC(=O)C3CCCN(Cc4cnc(C)nc4)C3)c2)c1 (configuration not stated) | inconclusive: 22.4 µM [inhibitor, partial curve, poor fit]
6 | Cn1ncc2c(C(=O)NCc3cccnc3)cc(-c3cccc(C(F)(F)F)c3)nc21 | inconclusive: 25.1 µM [inhibitor, partial curve]
7 | Nc1nc(N)c(S(=O)(=O)c2ccccc2)c(Nc2ccccc2)n1 | inactive
8 | COc1ccccc1Nc1ccnc(N2CCC(C(=O)NCc3ccc4c(c3)OCO4)CC2)n1 | inconclusive: 7.08 µM [inhibitor, partial curve, poor fit]
9 | CCOc1ccc(-n2nc3ccc(NC(=O)Cc4ccccc4)cc3n2)cc1 | active: 28.2 µM
10 | Cn1ccc(NC(=O)[C@@H]2C[C@@H](c3ccc(F)cc3)N(CCOc3ccccc3)C2)n1 | inconclusive: 1 µM [inhibitor, full curve, poor fit]
11 | Cc1cc(-c2ccc(C)c(S(=O)(=O)N3CCOc4ccc(Cl)cc43)c2)on1 | inconclusive: 39.8 µM [inhibitor, single point]
12 | COc1ccccc1-n1c(=O)c(C(=O)NC(C)C)nc2cccnc21 | inactive
13 | Cc1noc(C)c1S(=O)(=O)N1CCOC[C@H](Oc2ccc(C(F)(F)F)cc2)C1 | inactive
14 | O=C(N[C@@H]1CN(Cc2cc(F)cc(F)c2)C[C@H]1CO)c1ccccc1 | inconclusive: 1.41 µM [inhibitor, full curve, poor fit]
15 | FC(F)(F)c1cccc(-c2cc(-c3ccncc3)c3cncn3c2)c1 | inconclusive: 11.2 µM [inhibitor, full curve, poor fit]
16 | COc1ccc(C2Cn3nnc(C(=O)N4CCN(C(=O)Cc5ccc(F)cc5)CC4)c3CO2)cc1 (configuration not stated) | inconclusive: 5.62 µM [inhibitor, full curve, poor fit]
17 | Cc1nc(-c2ccc(F)cc2)n(CC(=O)Nc2ccccc2)c(=O)c1CCO | inactive
18 | N#Cc1ccc(CN2CCn3c(nnc3C3CCNCC3)C2)cc1 | inconclusive: 44.7 µM [inhibitor, single point]
19 | CSCCNC(=O)c1coc(COc2cccc(C(F)(F)F)c2)n1 | inconclusive: 39.8 µM [inhibitor, single point]
20 | Cn1cccc1CN1CCn2c(nnc2-c2ccccc2)C1 | inactive
21 | CCCCOc1ccc(C(=O)NCc2nnnn2-c2ccc(C)c(C)c2)cc1 | inconclusive: 39.8 µM [inhibitor, single point]

Row | Structure (SMILES) | Potency
22 | COC1CCC(C(=O)N2CCCn3nc(C)c(-c4ccccc4-c4ccccc4)c32)CC1 (configuration not stated) | inconclusive: 3.55 µM [inhibitor, full curve, poor fit]
23 | O=C(NCCCN1CCN(c2cccc(Cl)c2)CC1)c1cnn(-c2ccc(F)cc2)c1-n1cccc1 | inconclusive: 35.5 µM [inhibitor, partial curve, poor fit]
24 | COc1ccc(N2CCN(c3nc(C(=O)NCc4ccc(C)cc4)cs3)CC2)cc1 | inconclusive: 1.12 µM [inhibitor, full curve, poor fit]
25 | COc1ccc(N(C(=O)c2ccc(C(C)(C)C)cc2)S(=O)(=O)c2ccc(Cl)cc2)cc1 | inconclusive: 28.2 µM [inhibitor, single point]
26 | O=C(NCc1ccccc1)c1cnc2n1CCN(CC1CCCC1)CC2 | inconclusive: 63.1 µM [inhibitor, partial curve, poor fit]
27 | COc1ccccc1CNC(=O)[C@H]1CCC[C@H]1NC(=O)c1ccncc1 | inactive
28 | CN1CC2(CCN(C(=O)c3ccnn3C)CC2)CC1C(=O)N1CCOCC1 (configuration not stated) | inconclusive: 39.8 µM [inhibitor, single point]
29 | COc1cc(CNC(=O)c2cnc3c(c2)N(C(=O)Cc2ccc(C(C)C)cc2)CCC3)cc(OC)c1 | inconclusive: 10 µM [inhibitor, partial curve, poor fit]
30 | CCCSc1ncc(Cl)c(C(=O)N(Cc2ccc(Cl)cc2)Cc2ccco2)n1 | inconclusive: 39.8 µM [inhibitor, single point]
31 | Cn1cc(C(=O)N2CCC3(CC2)NCCc2c3[nH]c3ccccc23)cn1 | inconclusive: 39.8 µM [inhibitor, single point]
32 | CC(C)c1ccc(-c2nc(-c3cccnn3)no2)c(=O)[nH]1 | inactive
33 | CC(C)C[C@@H]1N[C@H](C(=O)NC2CCC2)Cc2cn(CC3CC3)c3cccc1c23 | inconclusive: 35.5 µM [inhibitor, partial curve, poor fit]
34 | O=C(NCc1ccc(F)cc1F)c1noc(-c2ccc3c(c2)OCO3)n1 | inactive
35 | O=C(CC1CCCC1)NCCc1noc(Cc2ccccc2)n1 | inconclusive: 2.82 µM [inhibitor, partial curve, poor fit]
36 | O=C1CC2(CCN(S(=O)(=O)c3cccs3)CC2)Oc2ccccc21 | inconclusive: 25.1 µM [inhibitor, partial curve, poor fit]
37 | Cc1ccc(-n2cccc2CC(=O)NC2CCCCC2)cc1 | inactive
38 | CC1(C)[C@H](Cc2cc(CCO)on2)C[C@@H]1NCc1ccccn1 | inconclusive: 35.5 µM [inhibitor, single point]
39 | O=C(Cc1cccc(Cl)c1)N1CCC(c2nn(-c3ccccc3)c(=O)[nH]2)CC1 | inconclusive: 11.2 µM [inhibitor, partial curve, poor fit]
40 | COc1ccc(NC(=O)N2CCc3c(C(=O)NCCCN(C)C)cccc32)cc1 | inconclusive: 17.8 µM [inhibitor, single point]
41 | Cn1ncc2c(C(=O)NCC(F)F)cc(-c3ccc(Cl)cc3)nc21 | inactive
42 | O=C(c1ccsc1)N1CCC2(CC1)NC(=O)N(Cc1ccc(Cl)cc1)C2=O | inconclusive: 15.8 µM [inhibitor, single point]

Row | Structure (SMILES) | Potency
43 | COc1ccc(-c2noc([C@@H]3Cc4nc[nH]c4CN3Cc3ccc(C)cc3)n2)cc1 | inconclusive: 5.62 µM [inhibitor, partial curve, poor fit]
44 | O=C(c1ccccc1F)N1CCc2nc(C3CC3)nc(-c3ccc(Cl)cc3)c2C1 | inconclusive: 3.16 µM [inhibitor, partial curve, poor fit]
45 | CN1C[C@H](C(=O)Nc2cccc(Cl)c2)C[C@H]1c1cccc(C(F)(F)F)c1 | inconclusive: 44.7 µM [inhibitor, partial curve, poor fit]
46 | CCOc1ccc(NC(=O)C2CCN(C(=O)N3CC(C)Oc4ccc(Cl)cc43)CC2)cc1 (configuration not stated) | inconclusive: 39.8 µM [inhibitor, single point]
47 | CCCn1ncnc1C(C)Nc1cc(C(C)C)nc2cc(C)nn12 (configuration not stated) | inactive
48 | O=C(CSC1=Nc2ccccc2C2=NC(CCC(=O)NC3CCCCC3)C(=O)N12)Nc1cccc(C(F)(F)F)c1 (configuration not stated) | inconclusive: 2.24 µM [inhibitor, single point]
49 | COc1ccc(C(=O)Nc2cc3c(cc2C(=O)c2ccccc2Cl)OCCO3)cc1 | inconclusive: 28.2 µM [inhibitor, partial curve, poor fit]
50 | COc1ccc(C2Cn3cnc(C(=O)N4CCC(C(=O)NCc5ccccc5F)CC4)c3CO2)cc1 (configuration not stated) | inconclusive: 12.6 µM [inhibitor, partial curve, poor fit]
51 | COCCCNC(=O)c1ccc2nnc(-c3ccc([S+](C)(=O)[O-])cc3)n2c1 | inactive
52 | O=C(NC1CCCC1)NC1CCN(c2nccc(Nc3ccccc3F)n2)CC1 | inactive
53 | CCOC(=O)N1CCc2c(sc3c2c(=O)n(-c2ccccc2)c(=O)n3CC(=O)Nc2ccc(OC)cc2OC)C1 | inconclusive: 10 µM [inhibitor, partial curve, poor fit]
54 | COc1ccccc1CNC(=O)CCC[C@H]1NC[C@@H]2C[C@H]1CN(Cc1ccccc1)C2 | inactive
55 | COC(=O)C(CCSC)NC(=O)C1CCN(c2ncnc3c2nc2n3CCCCC2)CC1 (configuration not stated) | inconclusive: 39.8 µM [inhibitor, single point]
56 | CCOc1ccc(C(=O)N2CCC(c3nnc(-c4ccccc4OC)o3)CC2)cc1 | inconclusive: 3.16 µM [inhibitor, single point]
57 | CN1CCCCCCN(C(=O)c2cnccn2)[C@H]2CCC[C@H]2C1=O | inactive
58 | O=C(c1cnc[nH]1)N1C[C@@H](COc2cccnc2)[C@H](c2ccccn2)C1 | inconclusive: 5.01 µM [inhibitor, single point]
59 | Cn1ncc2c(C(=O)NC3CC3)cc(-c3ccc(Cl)cc3)nc21 | inactive
60 | Cc1ccc(S(=O)(=O)N(CC(O)Cn2c3ccccc3c3ccccc32)c2cccc(C(=O)NCCO)c2)cc1 (configuration not stated) | inconclusive: 15.8 µM [inhibitor, partial curve, poor fit]
61 | OCC1(Cc2ccccc2Cl)CCN(Cc2cc3ccccc3o2)CC1 | inconclusive: 3.98 µM [inhibitor, single point]
62 | CC(C)NC[C@@H](C(=O)N1CCN(c2ncnc3c2[C@H](C)C[C@H]3O)CC1)c1ccc(Cl)cc1 | inconclusive: 30.4 µM [inhibitor, single point]
